Reference: the supplement of paper PMC8728848
Some of the results follow.

Key:
Assay in all cases: glycan array binding signal (z-score within array); higher = stronger binding
Conditions in all cases: glycan notation: IUPAC condensed, linker removed
[1] = molecular target: Neu5Ac(a2-3)Gal6S(b1-4)[Fuc(a1-3)]GlcNAc
Summary of the method: (§1)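 Columns mapping to the same glycan were averaged after glycan names were converted to IUPAC-condensed notation. The data come from 3228 arrays in the Consortium for Functional Glycomics database, limited to those with an available protein sequence. Binding is reported as a within-array Z-score averaged across arrays of one protein sequence and across linkers.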

[2] = molecular target: Neu5Ac(a2-3)GalNAc
Summary of the method: as §1

[3] = molecular target: Neu5Ac(a2-3)GalNAc(b1-4)GlcNAc
Summary of the method: as §1

[4] = molecular target: Neu5Ac(a2-3)[GalNAc(b1-4)]Gal(b1-4)Glc
Summary of the method: as §1

[5] = molecular target: Neu5Ac(a2-3)[GalNAc(b1-4)]Gal(b1-4)GlcNAc
Summary of the method: as §1

[6] = molecular target: Neu5Ac(a2-3)[GalNAc(b1-4)]Gal(b1-4)GlcNAc(b1-3)GalNAc
Summary of the method: as §1

[7] = molecular target: Neu5Ac(a2-3)[Neu5Ac(a2-6)]GalNAc
Summary of the method: as §1

[8] = molecular target: Neu5Ac(a2-6)Gal
Summary of the method: as §1

[9] = molecular target: Neu5Ac(a2-6)Gal(b1-3)GlcNAc(b1-3)[Gal(b1-4)GlcNAc(b1-6)]Gal(b1-4)Glc
Summary of the method: as §1

[10] = molecular target: Neu5Ac(a2-6)Gal(b1-4)Glc
Summary of the method: as §1

[11] = molecular target: Neu5Ac(a2-6)Gal(b1-4)GlcNAc
Summary of the method: as §1

[12] = molecular target: Neu5Ac(a2-6)Gal(b1-4)GlcNAc(b1-2)Man
Summary of the method: as §1

[13] = molecular target: Neu5Ac(a2-6)Gal(b1-4)GlcNAc(b1-2)Man(a1-3)Man(b1-4)GlcNAc(b1-4)GlcNAc
Summary of the method: as §1

[14] = molecular target: Neu5Ac(a2-6)Gal(b1-4)GlcNAc(b1-2)Man(a1-3)[Gal(b1-4)GlcNAc(b1-2)Man(a1-6)]Man(b1-4)GlcNAc(b1-4)GlcNAc
Summary of the method: as §1

[15] = molecular target: Neu5Ac(a2-6)Gal(b1-4)GlcNAc(b1-2)Man(a1-3)[GlcNAc(b1-2)Man(a1-6)]Man(b1-4)GlcNAc(b1-4)GlcNAc
Summary of the method: as §1

[16] = molecular target: Neu5Ac(a2-6)Gal(b1-4)GlcNAc(b1-2)Man(a1-3)[GlcNAc(b1-4)][Neu5Ac(a2-6)Gal(b1-4)GlcNAc(b1-2)Man(a1-6)]Man(b1-4)GlcNAc(b1-4)GlcNAc
Summary of the method: as §1

[17] = molecular target: Neu5Ac(a2-6)Gal(b1-4)GlcNAc(b1-2)Man(a1-3)[Man(a1-6)]Man(b1-4)GlcNAc(b1-4)GlcNAc
Summary of the method: as §1

[18] = molecular target: Neu5Ac(a2-6)Gal(b1-4)GlcNAc(b1-2)Man(a1-3)[Neu5Ac(a2-3)Gal(b1-4)GlcNAc(b1-2)Man(a1-6)]Man(b1-4)GlcNAc(b1-4)GlcNAc
Summary of the method: as §1

[19] = molecular target: Neu5Ac(a2-6)Gal(b1-4)GlcNAc(b1-2)Man(a1-3)[Neu5Ac(a2-6)Gal(b1-4)GlcNAc(b1-2)Man(a1-6)]Man(b1-4)GlcNAc(b1-4)GlcNAc
Summary of the method: as §1

[20] = molecular target: Neu5Ac(a2-6)Gal(b1-4)GlcNAc(b1-2)Man(a1-3)[Neu5Ac(a2-6)Gal(b1-4)GlcNAc(b1-2)Man(a1-6)]Man(b1-4)GlcNAc(b1-4)[Fuc(a1-6)]GlcNAc
Summary of the method: as §1

[21] = molecular target: Neu5Ac(a2-6)Gal(b1-4)GlcNAc(b1-2)Man(a1-6)Man(b1-4)GlcNAc(b1-4)GlcNAc
Summary of the method: as §1

[22] = molecular target: Neu5Ac(a2-6)Gal(b1-4)GlcNAc(b1-2)Man(a1-6)[Gal(b1-4)GlcNAc(b1-2)Man(a1-3)]Man(b1-4)GlcNAc(b1-4)GlcNAc
Summary of the method: as §1

[23] = molecular target: Neu5Ac(a2-6)Gal(b1-4)GlcNAc(b1-2)Man(a1-6)[GlcNAc(b1-2)Man(a1-3)]Man(b1-4)GlcNAc(b1-4)GlcNAc
Summary of the method: as §1

[24] = molecular target: Neu5Ac(a2-6)Gal(b1-4)GlcNAc(b1-2)Man(a1-6)[Man(a1-3)]Man(b1-4)GlcNAc(b1-4)GlcNAc
Summary of the method: as §1

[25] = molecular target: Neu5Ac(a2-6)Gal(b1-4)GlcNAc(b1-2)[Neu5Ac(a2-6)Gal(b1-4)GlcNAc(b1-4)]Man(a1-3)[GlcNAc(b1-4)][Neu5Ac(a2-6)Gal(b1-4)GlcNAc(b1-2)[Neu5Ac(a2-6)Gal(b1-4)GlcNAc(b1-6)]Man(a1-6)]Man(b1-4)GlcNAc(b1-4)GlcNAc
Summary of the method: as §1

[26] = molecular target: Neu5Ac(a2-6)Gal(b1-4)GlcNAc(b1-2)[Neu5Ac(a2-6)Gal(b1-4)GlcNAc(b1-4)]Man(a1-3)[GlcNAc(b1-4)][Neu5Ac(a2-6)Gal(b1-4)GlcNAc(b1-4)Man(a1-6)]Man(b1-4)GlcNAc(b1-4)GlcNAc
Summary of the method: as §1

[27] = molecular target: Neu5Ac(a2-6)Gal(b1-4)GlcNAc(b1-2)[Neu5Ac(a2-6)Gal(b1-4)GlcNAc(b1-6)]Man(a1-6)[Neu5Ac(a2-6)Gal(b1-4)GlcNAc(b1-2)Man(a1-3)][GlcNAc(b1-4)]Man(b1-4)GlcNAc(b1-4)GlcNAc
Summary of the method: as §1

[28] = molecular target: Neu5Ac(a2-6)Gal(b1-4)GlcNAc(b1-3)Gal(b1-3)GlcNAc
Summary of the method: as §1

[29] = molecular target: Neu5Ac(a2-6)Gal(b1-4)GlcNAc(b1-3)Gal(b1-4)GlcNAc
Summary of the method: as §1

[30] = molecular target: Neu5Ac(a2-6)Gal(b1-4)GlcNAc(b1-3)Gal(b1-4)GlcNAc(b1-2)Man(a1-3)[Neu5Ac(a2-6)Gal(b1-4)GlcNAc(b1-3)Gal(b1-4)GlcNAc(b1-2)Man(a1-6)]GalNAc
Summary of the method: as §1

[31] = molecular target: Neu5Ac(a2-6)Gal(b1-4)GlcNAc(b1-3)Gal(b1-4)GlcNAc(b1-3)Gal(b1-4)GlcNAc
Summary of the method: as §1

[32] = molecular target: Neu5Ac(a2-6)Gal(b1-4)GlcNAc(b1-3)Gal(b1-4)GlcNAc(b1-3)Gal(b1-4)GlcNAc(b1-2)Man(a1-3)[Neu5Ac(a2-6)Gal(b1-4)GlcNAc(b1-3)Gal(b1-4)GlcNAc(b1-3)Gal(b1-4)GlcNAc(b1-2)Man(a1-6)]GalNAc
Summary of the method: as §1

[33] = molecular target: Neu5Ac(a2-6)Gal(b1-4)GlcNAc(b1-3)Gal(b1-4)GlcNAc(b1-3)GalNAc
Summary of the method: as §1

[34] = molecular target: Neu5Ac(a2-6)Gal(b1-4)GlcNAc(b1-3)Gal(b1-4)GlcNAc(b1-3)[Neu5Ac(a2-6)Gal(b1-4)GlcNAc(b1-3)Gal(b1-4)GlcNAc(b1-6)]GalNAc
Summary of the method: as §1

[35] = molecular target: Neu5Ac(a2-6)Gal(b1-4)GlcNAc(b1-3)Gal(b1-4)GlcNAc(b1-6)[Gal(b1-3)]GalNAc
Summary of the method: as §1

[36] = molecular target: Neu5Ac(a2-6)Gal(b1-4)GlcNAc(b1-3)Gal(b1-4)[Fuc(a1-3)]GlcNAc(b1-3)Gal(b1-4)[Fuc(a1-3)]GlcNAc
Summary of the method: as §1

[37] = molecular target: Neu5Ac(a2-6)Gal(b1-4)GlcNAc(b1-3)GalNAc
Summary of the method: as §1

[38] = molecular target: Neu5Ac(a2-6)Gal(b1-4)GlcNAc(b1-3)[Neu5Ac(a2-6)Gal(b1-4)GlcNAc(b1-6)]GalNAc
Summary of the method: as §1

[39] = molecular target: Neu5Ac(a2-6)Gal(b1-4)GlcNAc(b1-6)GalNAc
Summary of the method: as §1

[40] = molecular target: Neu5Ac(a2-6)Gal(b1-4)GlcNAc(b1-6)[Gal(b1-3)GlcNAc(b1-3)]Gal(b1-4)Glc
Summary of the method: as §1

[41] = molecular target: Neu5Ac(a2-6)Gal(b1-4)GlcNAc(b1-6)[Gal(b1-3)]GalNAc
Summary of the method: as §1

[42] = molecular target: Neu5Ac(a2-6)Gal(b1-4)GlcNAc6S
Summary of the method: as §1

[43] = molecular target: Neu5Ac(a2-6)GalNAc
Summary of the method: as §1

[44] = molecular target: Neu5Ac(a2-6)GalNAc(b1-4)GlcNAc
Summary of the method: as §1

[45] = molecular target: Neu5Ac(a2-6)GalNAc(b1-4)GlcNAc6S
Summary of the method: as §1

B1: PFL (Pseudomonas fluorescens) (protein)
chain: MSKYAVANQWGGSSAPWHPGGTWVLGARDNQNVVAIEIKSGDGGKSFTGTMTYAGEGPIGFKAQRTGQNQYNVENQWGGNDAPWHPGGKWVIGGRDNQNVIALSVTSSDGGKNLSGTNTYANEGPIGFRGQIE
glycan array binding signal (z-score) [1]: -0.114
glycan array binding signal (z-score) [2]: -0.117
glycan array binding signal (z-score) [3]: -0.109
glycan array binding signal (z-score) [4]: -0.116
glycan array binding signal (z-score) [5]: -0.117
glycan array binding signal (z-score) [6]: -0.111
glycan array binding signal (z-score) [7]: -0.117
glycan array binding signal (z-score) [8]: -0.111
glycan array binding signal (z-score) [9]: -0.116
glycan array binding signal (z-score) [10]: -0.113
glycan array binding signal (z-score) [11]: -0.118
glycan array binding signal (z-score) [12]: -0.113
glycan array binding signal (z-score) [13]: -0.112
glycan array binding signal (z-score) [14]: -0.119
glycan array binding signal (z-score) [15]: 0.313
glycan array binding signal (z-score) [16]: -0.117
glycan array binding signal (z-score) [17]: -0.114
glycan array binding signal (z-score) [18]: -0.107
glycan array binding signal (z-score) [19]: -0.114
glycan array binding signal (z-score) [20]: -0.103
glycan array binding signal (z-score) [21]: -0.117
glycan array binding signal (z-score) [22]: -0.116
glycan array binding signal (z-score) [23]: -0.111
glycan array binding signal (z-score) [24]: -0.117
glycan array binding signal (z-score) [25]: -0.093
glycan array binding signal (z-score) [26]: -0.112
glycan array binding signal (z-score) [27]: -0.112
glycan array binding signal (z-score) [28]: -0.117
glycan array binding signal (z-score) [29]: -0.112
glycan array binding signal (z-score) [30]: -0.107
glycan array binding signal (z-score) [31]: -0.115
glycan array binding signal (z-score) [32]: -0.099
glycan array binding signal (z-score) [33]: -0.118
glycan array binding signal (z-score) [34]: -0.112
glycan array binding signal (z-score) [35]: -0.118
glycan array binding signal (z-score) [36]: -0.073
glycan array binding signal (z-score) [37]: -0.111
glycan array binding signal (z-score) [38]: -0.117
glycan array binding signal (z-score) [39]: -0.113
glycan array binding signal (z-score) [40]: -0.109
glycan array binding signal (z-score) [41]: -0.117
glycan array binding signal (z-score) [42]: -0.111
glycan array binding signal (z-score) [43]: -0.117
glycan array binding signal (z-score) [44]: -0.113
glycan array binding signal (z-score) [45]: -0.111
